The text below walks through data of the supplement of paper PMC10037445.

Whole data set: some 2,900 compounds, median “IRF Lucia reporter activity, fold change vs agonist alone” near 0.9, cut for the highest 2% near 2.8. This is one part of the list.

Experiment [1] has as its system RAW-Dual. The experiment can be described thus: IRF Lucia reporter activity, fold change vs agonist alone; higher = enhanced IRF activity. The settings on record: agonist: MPLA (TLR4) […]. In outline: (§1)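 Supernatant from RAW-Dual macrophages was read after 20 hours for IRF by QuantiLuc luminescence and for NF-κB by QuantiBlue absorbance at 620 nm. The cells (50,000 cells/well in DMEM, 384-well plates, 37 °C, 5% CO2) had received 50 nL of library stock by pin tool and, 1 h later, a PRR agonist. Reporter activity is expressed relative to agonist-alone wells as fold change, and wells were flagged cytotoxic if IncuCyte confluency was under 70% of agonist controls in both mask sets.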

Experiment [2] deals with RAW-Dual. The experiment can be described thus: IRF Lucia reporter activity, fold change vs agonist alone; cytotoxicity flag (confluency mask): not cytotoxic; higher = enhanced IRF activity. In outline:
as §1

Experiment [3] deals with RAW-Dual. The experiment can be described thus: IRF Lucia reporter activity, fold change vs agonist alone; cytotoxicity flag (confluency mask): cytotoxic (confluency <70% of control); higher = enhanced IRF activity. The method, boiled down:
as §1

Setting [4] is: library stock concentration (final ~1000-fold dilution): 10 mM, cytotoxicity flag (confluency mask): not cytotoxic.
Where [5] appears, read: agonist: 3'3'-cGAMP (STING) 10 ug/mL.
The mark [6] stands for this setting: library stock concentration (final ~1000-fold dilution): 10 mM, cytotoxicity flag (confluency mask): cytotoxic (confluency <70% of control).

Regarding `Cc1cccc(/C=N/Nc2cc(N3CCOCC3)nc(OCCc3ccccn3)n2)c1`, the “IRF Lucia reporter activity” value in experiment [1] (setting [4]) came out at 3.08. For the molecule `Cc1cccc(/C=N/Nc2cc(N3CCOCC3)nc(OCCc3ccccn3)n2)c1` (library stock concentration (final ~1000-fold dilution): 10 mM), the “IRF Lucia reporter activity” value was determined as 0.326 in experiment [2] (setting [5]) and 2.84 in experiment [2] (agonist: LPS (TLR4) 0.1 ug/mL). For `CC(Nc1cc(F)cc(F)c1)c1cc(C(=O)N(C)C)cc2c(=O)cc(N3CCOCC3)oc12` (stereo unspecified) (library stock concentration (final ~1000-fold dilution): 10 mM), the “IRF Lucia reporter activity” value in experiment [2] (setting [5]) came to 0.602; in experiment [2] (agonist: LPS (TLR4) 0.1 ug/mL), 1.71.

In the case of `COc1cc(Nc2ncc(F)c(Nc3ccc4c(n3)NC(=O)C(C)(C)O4)n2)cc(OC)c1OC`, the “IRF Lucia reporter activity” value in experiment [1] (setting [6]) is 0.022. With `COc1cc(Nc2ncc(F)c(Nc3ccc4c(n3)NC(=O)C(C)(C)O4)n2)cc(OC)c1OC` (library stock concentration (final ~1000-fold dilution): 10 mM), the “IRF Lucia reporter activity” value in experiment [3] (setting [5]) is 0.0168; in experiment [3] (agonist: LPS (TLR4) 0.1 ug/mL), 0.0234. For `O=C(O)CCC(=O)Nc1ccc(Br)cn1` (library stock concentration (final ~1000-fold dilution): 10 mM), the entries for the “IRF Lucia reporter activity” value in experiment [2] (setting [5]) and in experiment [2] (agonist: LPS (TLR4) 0.1 ug/mL) were 0.931 and 0.979, respectively.

In the case of `COc1ccc(C(=O)Nc2sc3c(c2C(N)=O)CCCC3)cc1OC` (library stock concentration (final ~1000-fold dilution): 10 mM), the “IRF Lucia reporter activity” value in experiment [2] (setting [5]) turned out to be 0.857; in experiment [2] (agonist: LPS (TLR4) 0.1 ug/mL) it was 1.16. On the same counts, the results for `CC(=O)N1CCC(Nc2cc(C(=O)NCC(O)CN3CCc4ccccc4C3)ncn2)CC1` (stereo unspecified) (library stock concentration (final ~1000-fold dilution): 10 mM) are 0.982 and 1.02. Consider `CC(=O)NO`, for which the “IRF Lucia reporter activity” value in experiment [1] (setting [4]) was 1.04. In the case of `CC(=O)NO` (library stock concentration (final ~1000-fold dilution): 10 mM), the “IRF Lucia reporter activity” value stood at 1.02 in experiment [2] (setting [5]) and 1.17 in experiment [2] (agonist: LPS (TLR4) 0.1 ug/mL).

For `CC(O)C(=O)O.CC(O)C(=O)O.CN1CCN(c2ccc3nc(-c4c(N)c5c(F)cccc5[nH]c4=O)[nH]c3c2)CC1` (library stock concentration (final ~1000-fold dilution): 10 mM), the “IRF Lucia reporter activity” value in experiment [3] (setting [5]) worked out at 0.0211; in experiment [3] (agonist: LPS (TLR4) 0.1 ug/mL), 0.0308. Turning to `CC(O)C(=O)O.CC(O)C(=O)O.CN1CCN(c2ccc3nc(-c4c(N)c5c(F)cccc5[nH]c4=O)[nH]c3c2)CC1`, in experiment [1] (setting [6]), the “IRF Lucia reporter activity” value turned out to be 0.0738. In the case of `CC(N)(Cc1ccc(O)c(O)c1)C(=O)O` (stereo unspecified), in experiment [1] (library stock concentration (final ~1000-fold dilution): 2 mM, cytotoxicity flag (confluency mask): not cytotoxic), the “IRF Lucia reporter activity” value worked out at 1.28.

With `CC(N)(Cc1ccc(O)c(O)c1)C(=O)O` (stereo unspecified) (library stock concentration (final ~1000-fold dilution): 2 mM), the results for the “IRF Lucia reporter activity” value in experiment [2] (setting [5]) and in experiment [2] (agonist: LPS (TLR4) 0.1 ug/mL) were 1 and 0.972, respectively. Take `COC(=O)C(CC(C)C)NC(=O)c1ccc(NCC(N)CS)cc1-c1cccc2ccccc12.O=C(O)C(F)(F)F` (stereo unspecified) (library stock concentration (final ~1000-fold dilution): 10 mM): the “IRF Lucia reporter activity” value in experiment [2] (setting [5]) stood at 0.0714; in experiment [2] (agonist: LPS (TLR4) 0.1 ug/mL) it was 0.736. `COC(=O)C(CC(C)C)NC(=O)c1ccc(NCC(N)CS)cc1-c1cccc2ccccc12.O=C(O)C(F)(F)F` (stereo unspecified): the “IRF Lucia reporter activity” value in experiment [1] (setting [4]) was 0.882.

`Cc1ccc(/C(=C\CN2CCCC2)c2cccc(/C=C/C(=O)O)n2)cc1` (library stock concentration (final ~1000-fold dilution): 10 mM): the “IRF Lucia reporter activity” value in experiment [2] (setting [5]) amounted to 0.962; in experiment [2] (agonist: LPS (TLR4) 0.1 ug/mL) it was 1.42.

In the case of `Cc1ccc(/C(=C\CN2CCCC2)c2cccc(/C=C/C(=O)O)n2)cc1`, in experiment [1] (setting [4]), the “IRF Lucia reporter activity” value came out at 1.02.

Regarding `O=C(OC1OC2COC(=O)c3cc(O)c(O)c(O)c3-c3c(cc(O)c(O)c3O)C(=O)OC(C2O)C1O)c1cc(O)c(O)c(O)c1` (stereo unspecified) (library stock concentration (final ~1000-fold dilution): 10 mM), the “IRF Lucia reporter activity” value was 0.767 in experiment [2] (setting [5]) and 0.769 in experiment [2] (agonist: LPS (TLR4) 0.1 ug/mL). For the molecule `O=Cc1ccc(O)c(O)c1` (library stock concentration (final ~1000-fold dilution): 10 mM), the “IRF Lucia reporter activity” value in experiment [2] (setting [5]) was determined as 0.613; in experiment [2] (agonist: LPS (TLR4) 0.1 ug/mL) it was 1.13. For `COc1cc2ncc(-c3ccccc3)nc2cc1OC` (library stock concentration (final ~1000-fold dilution): 10 mM), the results for the “IRF Lucia reporter activity” value in experiment [2] (setting [5]) and in experiment [2] (agonist: LPS (TLR4) 0.1 ug/mL) were 0.506 and 0.722, respectively. The matching figures for `COC(=O)c1sccc1S(=O)(=O)Nc1ccc(Nc2ccccc2)cc1OC` (library stock concentration (final ~1000-fold dilution): 10 mM): 0.918 and 0.381. For `COC(=O)c1sccc1S(=O)(=O)Nc1ccc(Nc2ccccc2)cc1OC`, the “IRF Lucia reporter activity” value in experiment [1] (setting [4]) worked out at 0.834. `C=CC(=O)N1CCCC(n2nc(-c3ccc(Oc4ccccc4)cc3)c(C(N)=O)c2N)C1` (stereo unspecified) (library stock concentration (final ~1000-fold dilution): 10 mM): the “IRF Lucia reporter activity” value in experiment [2] (setting [5]) was 0.185; in experiment [2] (agonist: LPS (TLR4) 0.1 ug/mL) it was 0.786. In the case of `CCC1(O)C(=O)OCc2c1cc1n(c2=O)Cc2cc3cc(O)ccc3nc2-1` (stereo unspecified), the “IRF Lucia reporter activity” value in experiment [1] (setting [6]) stood at 2.58; in experiment [1] (setting [4]), 1.03. Turning to `CCC1(O)C(=O)OCc2c1cc1n(c2=O)Cc2cc3cc(O)ccc3nc2-1` (stereo unspecified) (library stock concentration (final ~1000-fold dilution): 10 mM), the “IRF Lucia reporter activity” value amounted to 0.975 in experiment [2] (setting [5]), 0.604 in experiment [2] (agonist: LPS (TLR4) 0.1 ug/mL), 2.36 in experiment [3] (setting [5]) and 1.76 in experiment [3] (agonist: LPS (TLR4) 0.1 ug/mL).
